Here are results for two compounds from patent publication US20260240901A1, “COMBINATION OF NITROUS OXIDE AND 5-HT2A RECEPTOR AGONISTS” (Cybin IRL Limited, priority 2022, published 2026).

Holding throughout (details): 60 min treatment + 60 min room air, DMT-d10 5.6 mg/kg s.c., N2O 50% inhaled
Assay [1] deals with discs large homolog 4 (dlg4 or psd-95). As to the kind of experiment: RTqPCR gene expression in mouse left frontal cortex: dlg4. In kind it is in vivo, mice (C57B16/J). Background: In qPCR the cycle at which signal appears reflects the starting amount.
Assay [2] relates to regulatory associated protein of MTOR complex 1 (rptor). Description: RTqPCR gene expression in mouse left frontal cortex: rptor. In kind it is in vivo, mice (C57B16/J).
For assay [3], the system named is nuclear factor of kappa light polypeptide gene enhancer in B-cells inhibitor, alpha (ikba or Ikβα). Description: RTqPCR gene expression in mouse left frontal cortex: ikba.

For the compound `[2H]C([2H])([2H])N(C([2H])([2H])[2H])C([2H])([2H])C([2H])([2H])c1c[nH]c2ccccc12` [DMT-d10], in assay [1], the “dlg4 gene expression, percentage change compared to control (Veh/Air), % mean” value is −1.25%. The “rptor gene expression, percentage change compared to control (Veh/Air), % mean” value in assay [2] was found to be 1.97%. In addition, the “ikba gene expression, percentage change compared to control (Veh/Air), % mean” value in assay [3] is reported as 40.73%.

On to `[N-]=[N+]=O` [N2O, nitrous oxide], for which the “dlg4 gene expression, percentage change compared to control (Veh/Air), % mean” value in assay [1] is given as −4.46%. In addition, the “rptor gene expression, percentage change compared to control (Veh/Air), % mean” value in assay [2] is reported as 17.79%. Also, the “ikba gene expression, percentage change compared to control (Veh/Air), % mean” value in assay [3] is recorded as 56.11%.
